Experimental data reported in patent US20260000669A1, “TREATMENT REGIMEN FOR AUTOIMMUNE DISEASES AND INFLAMMATORY DISEASES” (Merck Patent GmbH, priority 2022, published 2026).

Tested on: influenza virus strains

Compound: C=CC(=O)N1CCC(CNc2ncnc(N)c2-c2ccc(Oc3ccccc3)cc2)CC1 [evobrutinib, 1-[4-({[6-amino-5-(4-phenoxyphenyl)pyrimidin-4-yl]amino}methyl)piperidin-1-yl]prop-2-en-1-one]
- seroconversion rate (evobrutinib [total] group (75 mg QD or 50 mg BID), SLE patients, influenza vaccine): 53.1%
- seroprotection rate post-vaccination (evobrutinib [total] group, post-vaccination): 81.3%
- seroprotection rate pre-vaccination (evobrutinib [total] group, pre-vaccination): 56.3%
- difference in seroconversion rate versus placebo (evobrutinib [total] minus placebo, in favor of evobrutinib): 5.3%
- overall humoral immune response to the influenza vaccine compared with placebo (phase II trial, SLE patients): comparable
- geometric mean ratios of post- vs pre-vaccination HI titer compared with placebo (placebo and evobrutinib groups): generally comparable and similar
